Source: the supplement of paper PMC9334596
“And” between values parts separate entries of the source, which are not always exact repeats. Identical values can stand only once. Over roughly 5,300 compounds, “PER2::LUC luminescence relative to vehicle control” has its median near 0.96; the highest 2% begin near 1.3. The list shows a part of the results.

Tested on: mPer2Luc MEF
Assay: PER2::LUC luminescence relative to vehicle control (fold of vehicle); higher = higher PER2::LUC reporter signal
Conditions: 10 µM
Outline: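 Compounds from commercial libraries were added at 10 μM to 384-well plates seeded 48 h earlier with ~3000 mPer2Luc mouse embryonic fibroblasts per well. The cells were kept in DMEM with 10% FBS at 37 °C and 5% CO2. Luminescence was read with ONE-Glo 24 h and 30 h after treatment, then an alamarBlue viability assay was run. Values are PER2::LUC luminescence relative to vehicle control, as fold change.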

Row | SMILES | PER2::LUC luminescence (time after treatment 24 h) | PER2::LUC luminescence (time after treatment 30 h)
1 | O=Cc1ccccc1O[C@@H]1O[C@H](CO)[C@@H](O)[C@H](O)[C@H]1O | 0.95 | 1.02
2 | OCc1cccnc1 | 0.957 and 1.11 and 0.875 | 0.958 and 0.75 and 0.854
3 | CCC(C)(C)C(=O)O[C@H]1C[C@@H](C)C=C2C=C[C@H](C)[C@H](CC[C@@H](O)C[C@@H](O)CC(=O)O)[C@H]21 | 1.04 | 1.05
4 | O=C(/C=C/c1ccc(O)cc1)CC(=O)/C=C/c1ccc(O)cc1 | 1.1 | 1.07
5 | C[S+]([O-])c1ccc(-c2nc(-c3ccc(F)cc3)c(-c3ccncc3)[nH]2)cc1 (stereo not drawn) | 0.747 | 1.16
6 | CC1=CC(=O)C(C(C)C)=CC1=O | 0.861 | 0.986
7 | O=C(O)Cc1c[nH]c2ccc(O)cc12 | 1.05 | 0.903
8 | CCN(c1nc(N)c(C(=O)NC(=N)N)nc1Cl)C(C)C | 1.04 | 1.06
9 | COC(=O)C(Cc1ccccc1)NC(=O)/C(=C1/OC(=O)C(c2ccccc2)=C1O)c1ccccc1 (stereo not drawn) | 0.992 | 0.923
10 | CN1CCC[C@@H]1Cc1c[nH]c2ccc(CCS(=O)(=O)c3ccccc3)cc12 | 0.796 | 0.974
11 | CC(C)[N+](C)(CCOC(=O)C1c2ccccc2Oc2ccccc21)C(C)C | 1.19 | 0.834
12 | C[N+](C)(C)C[C@H](O)CC(=O)O | 0.959 | 0.919
13 | CN(C)CCC=C1c2ccccc2COc2ccccc21 | 0.963 and 0.435 | 0.843 and 0.535
14 | C1COC(NC(C2CC2)C2CC2)=N1 | 0.931 | 1
15 | COc1cc(OC2CCN(C)CC2)ccc1Nc1ncc2c(n1)n(C1CCCC1)c(=O)n2C | 0.99 | 0.927
16 | C#CCN[C@@H]1CCc2ccccc21 | 1.03 and 0.84 | 0.995 and 0.732
17 | Cn1c(=O)[nH]c2ncn(C)c2c1=O | 1.06 and 1.11 | 0.947 and 0.808
18 | C/C1=C2N=C(/C=C3N=C(/C(C)=C4\[N-]C(C(CC(N)=O)C4(C)CCC(=O)NCC(C)OP(=O)([O-])OC4C(CO)OC(n5cnc6cc(C)c(C)cc65)C4O)C4(C)N=C1C(CCC(N)=O)C4(C)CC(N)=O)C(CCC(N)=O)C\3(C)C)C(CCC(N)=O)C/2(C)CC(N)=O.[CH3-].[Co+3] (stereo not drawn) | 1.07 | 1.03
19 | O=C1OC(C=Cc2ccccc2)=NC1=Cc1cccnc1 | 1.03 | 1.05
20 | C=CCSSSCC=C | 1.32 | 1.05
21 | COc1ccc2c(c1)OCC(Cc1ccc(OC)c(O)c1)C2=O (stereo not drawn) | 0.459 | 0.501

Row | SMILES | PER2::LUC luminescence (time after treatment 24 h) | PER2::LUC luminescence (time after treatment 30 h)
22 | COc1ccc(NS(=O)(=O)c2sc3ccc(Cl)cc3c2C)cc1N1CCNCC1 | 0.605 and 0.615 | 0.674 and 0.614
23 | Cc1cc(C(C)(C)C)c(O)c(C(C)(C)C)c1 | 1.16 and 1.18 | 0.828 and 1.01
24 | COc1ccc(-c2cc(=S)ss2)cc1 | 1.31 | 1.16
25 | O=C(O)c1cn(C2CC2)c2cc(N3CCNCC3)c(F)cc2c1=O | 1.06 and 0.782 | 1.19 and 0.813
26 | CCCn1c(=O)[nH]c(=O)c2[nH]cnc21 | 0.891 | 1.03
27 | O[C@H]1CCN2Cc3ccccc3N=C12 | 0.987 | 0.932
28 | C[N+](C)(C)CC=O | 0.974 | 0.958
29 | CCOc1nc2cccc(C(=O)OCc3oc(=O)oc3C)c2n1Cc1ccc(-c2ccccc2-c2noc(=O)[nH]2)cc1 | 0.983 and 1.05 | 1.16 and 1.07
30 | COc1ccc(/C=C/C(=O)c2ccc(O)cc2O)cc1 | 1.51 | 1.56
31 | OC[C@H]1O[C@@H](n2cnc3c(NC4CCCC4)ncnc32)[C@H](O)[C@@H]1O | 0.965 | 0.991
32 | CN1CC(=O)N2[C@H](c3ccc4c(c3)OCO4)c3[nH]c4ccccc4c3C[C@@H]2C1=O | 0.925 and 0.773 | 0.883 and 1.02
33 | C1CCC(C(CC2CCCCN2)C2CCCCC2)CC1 (stereo not drawn) | 0.213 | 0.32
34 | CCC/C=C\C=C/C(=O)N[C@@H](CC(N)=O)C(=O)NC(CC(N)=O)C(=O)N[C@@H](C(=O)N[C@H](CCCN)C(=O)N[C@@H](C(=O)N[C@@H](C(=O)N[C@@H](C(=O)N[C@H](C(=O)N[C@@H](Cc1ccccc1)C(=O)N[C@H](CCCN)C(=O)NC(C(=O)N[C@H](C(=O)NC(C(=O)NCC(=O)N[C@@H](CC(C)C)C(=O)N[C@H](C)C(=O)NC(C(=O)O)C1CCC(O)C(Cl)C1)C1CCC(O)CC1)[C@H](C)O)C1CCC(O)CC1)[C@H](C)O)C1CCC(O)CC1)C1CCC(O)CC1)[C@H](C)O)C1CCC(O)CC1 (stereo partly drawn) | 0.82 | 0.849
35 | CCN(C(=O)c1c(O)c2c(Cl)cccc2n(C)c1=O)c1ccccc1 | 1.13 | 1.04
36 | Cc1c(C(=O)NN2CCCCC2)nn(-c2ccc(Cl)cc2Cl)c1-c1ccc(I)cc1 | 0.927 | 0.937
37 | CCc1nc(N)nc(N)c1-c1ccc(Cl)cc1 | 0.455 | 0.493
38 | CC(=O)[C@@]1(O)CC[C@H]2[C@@H]3C[C@H](C)C4=CC(=O)C=C[C@]4(C)[C@@]3(F)[C@@H](O)C[C@@]21C | 0.814 | 1.05
39 | CC(C)NCC(O)COc1ccc(CCOCC2CC2)cc1 (stereo not drawn) | 1.11 and 0.927 | 1.2 and 0.945
40 | CC(C)(OCc1nn(Cc2ccccc2)c2ccccc12)C(=O)O | 1.1 | 1.03
41 | Cc1ccc(S(=O)(=O)N[C@@H](Cc2ccccc2)C(=O)CCl)cc1 | 0.449 | 0.743
42 | COc1cc(C(=O)NCc2ccc(OCCN(C)C)cc2)cc(OC)c1OC | 0.611 | 0.898

Row | SMILES | PER2::LUC luminescence (time after treatment 24 h) | PER2::LUC luminescence (time after treatment 30 h)
43 | CCCN1CCCC[C@H]1C(=O)Nc1c(C)cccc1C | 1.14 | 1.1
44 | C[Si](C)(C)CCOCn1ccc2c(-c3cn[nH]c3)ncnc21 | 1.11 | 1.03
45 | O=C(O)C1CC([C@@H]2CCCCN2)CN2CCCCC12 (stereo partly drawn) | 0.909 | 0.987
46 | Nc1n[n+]([O-])c2ccccc2[n+]1[O-] | 1.36 | 1.15
47 | COc1cccc2oc(-c3ccccc3)cc(=O)c12 | 1.41 | 1.43
48 | C[C@@H]1CC[C@H]2[C@](C)(CO)[C@@H](O)CC[C@]2(C)[C@@]12CC[C@@](CO)(CCO)O2 | 1.09 and 0.993 | 1.04 and 0.968
49 | CC(NC(=O)c1ccccc1/N=C/c1c(O)ccc2ccccc12)c1ccccc1 (stereo not drawn) | 0.983 | 0.907
50 | Cc1cccc(-c2[nH]c(C(C)(C)C)nc2-c2ccc3c(c2)OCO3)n1 | 0.603 | 0.631
51 | NC1CCN(c2cccc(Cl)n2)CC1 | 0.875 and 0.913 | 0.872 and 0.809
52 | O=C(O)CNC(=O)C(CS)Cc1ccccc1 (racemic) | 0.927 | 1.19
53 | Clc1ccc(C(Cn2ccnc2)OCc2ccsc2Cl)c(Cl)c1 (stereo not drawn) | 0.634 and 0.877 | 1.24 and 0.92
54 | COc1cc(C(=O)N2CCC(N3CCN(C)CC3)CC2)ccc1Nc1ncc2c(n1)N(C)c1ccccc1C(=O)N2C | 0.091 | 0.094
55 | NC(=O)CCC(N)C(=O)O (racemic) | 0.886 | 1.24
56 | COC(=O)/C=C/c1cccc(N(Cc2ccc(-c3ccc(N(C)C)cc3)cc2)C(=O)C2CCCCC2)c1 | 0.953 | 1.02
57 | C[C@](N)(Cc1ccc(O)c(O)c1)C(=O)O | 0.957 and 0.877 | 0.887 and 0.918
58 | c1cnc(N2CCN(Cc3ccc4c(c3)OCO4)CC2)nc1 | 1.01 and 0.951 and 0.809 | 0.922 and 0.907 and 0.9
59 | CC(C)=CCC[C@](C)(O)[C@H]1CC[C@]2(C)[C@@H]1[C@H](O)C[C@@H]1[C@@]3(C)CC[C@H](O)C(C)(C)[C@@H]3CC[C@]12C | 1.08 | 0.968
60 | COc1nc2ccc(Br)cc2cc1[C@@H](c1ccccc1)[C@@](O)(CCN(C)C)c1cccc2ccccc12 | 1.05 and 1.01 and 1.17 | 1.09 and 1.05 and 1.01
61 | Cc1c(C(=O)NN2CCCCC2)nn(-c2ccc(Cl)cc2Cl)c1-c1ccc(Cl)cc1 | 0.975 and 1.11 | 1.05 and 0.877
62 | O=C1/C(=C/c2cccs2)CCC/C1=C\c1cccs1 | 1.5 | 1.67
63 | C[C@H]1c2cccc(O)c2C(=O)C2=C(O)[C@]3(O)C(=O)C(C(N)=O)=C(O)[C@@H](N(C)C)[C@@H]3[C@@H](O)[C@@H]21 | 0.604 | 0.779

Row | SMILES | PER2::LUC luminescence (time after treatment 24 h) | PER2::LUC luminescence (time after treatment 30 h)
64 | C=CC(C1=CC(=O)C(OC)=CC1=O)c1ccccc1 (stereo not drawn) | 1.06 | 1.09
65 | COc1cc2c(cc1OC)CC(=O)N(CCCN(C)C[C@H]1Cc3cc(OC)c(OC)cc31)CC2 | 0.894 | 0.911
66 | CC(C)C(=O)Oc1ccc(CO)cc1[C@H](CCN(C(C)C)C(C)C)c1ccccc1 | 0.904 | 0.896
67 | Oc1cc2c(c(Cl)c1O)CCNCC2c1ccccc1 (racemic) | 0.825 | 0.864
68 | Cc1nn(-c2ccccc2)c(C)c1C=NN1CCN(Cc2ccccc2)CC1 | 1.03 | 0.953
69 | Cc1ccc(NC(=O)c2ccc(CN3CCN(C)CC3)cc2)cc1Nc1nccc(-c2cccnc2)n1 | 0.753 and 0.642 | 0.854 and 0.835
70 | O=C(O)C(=O)O.[NH-][C@@H]1CCCC[C@H]1[NH-].[Pt+2] | 1.16 | 0.987
71 | CCOC(=O)COc1ccc2c(=O)cc(-c3ccccc3)oc2c1 | 1.06 | 1.08
72 | CCCCCCCCCCCCCC[C@@H](O)[C@@H](O)[C@@H](N)CO | 1.16 | 1.05
73 | O=C(NCC1(c2nc(-c3ccccc3)cs2)CCOCC1)c1cccc(-c2noc(C(F)(F)F)n2)c1 | 0.923 | 0.884
74 | COc1c(CC(=O)c2cc3c(cc2O)OC(C)(C)C(O)C3)ccc2c1C=CC(C)(C)O2 (stereo not drawn) | 0.181 | 0.237
75 | CCc1cc2c(cc1N1CCC(N3CCOCC3)CC1)C(C)(C)c1[nH]c3cc(C#N)ccc3c1C2=O | 0.77 | 0.795
76 | CCOC(=O)O[C@]1(C(=O)OCCl)CC[C@H]2[C@@H]3CCC4=CC(=O)C=C[C@]4(C)[C@H]3[C@@H](O)C[C@@]21C | 0.768 | 1.11
77 | Fc1ccc(CN(C2=NCCN2)c2c(Cl)cccc2Cl)cc1 | 0.85 | 0.85
78 | Cc1cc(O)cc(C)c1Cl | 1.03 and 0.695 | 1.07 and 0.977
79 | CC(=O)N(c1onc(C)c1C)S(=O)(=O)c1ccc(N)cc1 | 1.04 | 1.04
80 | Cc1cn(-c2cc(NC(=O)c3ccc(C)c(Nc4nccc(-c5cccnc5)n4)c3)cc(C(F)(F)F)c2)cn1 | 0.696 | 0.803
81 | Oc1cccc(O)c1 | 1.08 and 0.869 | 0.94 and 0.83
82 | C[C@@H](O[C@H]1OCCN(Cc2n[nH]c(=O)[nH]2)[C@H]1c1ccc(F)cc1)c1cc(C(F)(F)F)cc(C(F)(F)F)c1 | 0.807 | 0.805
83 | Clc1ccccc1CNCC1CCC(CNCc2ccccc2Cl)CC1 (stereo not drawn) | 1.05 | 0.974
84 | C=C1CCC(C2CC(=O)OC2=O)C(=O)CCC2C1CC2(C)C (stereo not drawn) | 1.01 | 1.04
